# This is one part of the list.
# Assays:
# Experiment in all cases: glycan array binding signal (z-score within array); higher = stronger binding
# Conditions in all cases: glycan notation: IUPAC condensed, linker removed
# GlcNAc(b1-3)GalNAc = target: GlcNAc(b1-3)GalNAc
# Method in brief: (§1)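 From the Consortium for Functional Glycomics database, 3228 arrays were curated, keeping only those whose protein sequence was available. Binding is given as a within-array Z-score averaged across arrays sharing a protein sequence and across linkers. Negative Z-scores can be read as non-binding.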
# GlcNAc(b1-3)Man = target: GlcNAc(b1-3)Man
# Method in brief: as §1
# [1] = target: GlcNAc(b1-3)[GlcNAc(b1-4)][GlcNAc(b1-6)]GlcNAc
# Method in brief: as §1
# [2] = target: GlcNAc(b1-3)[GlcNAc(b1-6)]Gal(b1-4)GlcNAc
# Method in brief: as §1
# [3] = target: GlcNAc(b1-3)[GlcNAc(b1-6)]GalNAc
# Method in brief: as §1
# [4] = target: GlcNAc(b1-4)Gal(b1-4)GlcNAc
# Method in brief: as §1
# GlcNAc(b1-4)GlcNAc = target: GlcNAc(b1-4)GlcNAc
# Method in brief: as §1
# [5] = target: GlcNAc(b1-4)GlcNAc(b1-4)GlcNAc
# Method in brief: as §1
# [6] = target: GlcNAc(b1-4)GlcNAc(b1-4)GlcNAc(b1-4)GlcNAc(b1-4)GlcNAc
# Method in brief: as §1
# [7] = target: GlcNAc(b1-4)GlcNAc(b1-4)GlcNAc(b1-4)GlcNAc(b1-4)GlcNAc(b1-4)GlcNAc
# Method in brief: as §1
# [8] = target: GlcNAc(b1-4)[GlcNAc(b1-6)]GalNAc
# Method in brief: as §1
# [9] = target: GlcNAc(b1-6)Gal(b1-4)GlcNAc
# Method in brief: as §1
# GlcNAc(b1-6)GalNAc = target: GlcNAc(b1-6)GalNAc
# Method in brief: as §1
# [10] = target: GlcNAc6S(b1-3)Gal(b1-4)GlcNAc
# Method in brief: as §1
# Kdn(a2-3)Gal(b1-3)GalNAc = target: Kdn(a2-3)Gal(b1-3)GalNAc
# Method in brief: as §1
# Kdn(a2-3)Gal(b1-3)GlcNAc = target: Kdn(a2-3)Gal(b1-3)GlcNAc
# Method in brief: as §1
# Kdn(a2-3)Gal(b1-4)Glc = target: Kdn(a2-3)Gal(b1-4)Glc
# Method in brief: as §1
# Kdn(a2-3)Gal(b1-4)GlcNAc = target: Kdn(a2-3)Gal(b1-4)GlcNAc
# Method in brief: as §1
# [11] = target: Kdn(a2-3)Gal(b1-4)[Fuc(a1-3)]GlcNAc
# Method in brief: as §1
# Kdn(a2-6)Gal(b1-4)GlcNAc = target: Kdn(a2-6)Gal(b1-4)GlcNAc
# Method in brief: as §1
# [12] = target: Man(a1-2)Man(a1-2)Man(a1-3)Man
# Method in brief: as §1
# [13] = target: Man(a1-2)Man(a1-2)Man(a1-6)[Man(a1-3)]Man
# Method in brief: as §1
# Man(a1-2)Man(a1-3)Man = target: Man(a1-2)Man(a1-3)Man
# Method in brief: as §1
# [14] = target: Man(a1-2)Man(a1-3)[Man(a1-2)Man(a1-6)]Man
# Method in brief: as §1
# [15] = target: Man(a1-2)Man(a1-3)[Man(a1-2)Man(a1-6)]Man(a1-6)[Man(a1-2)Man(a1-2)Man(a1-3)]Man
# Method in brief: as §1
# [16] = target: Man(a1-2)Man(a1-3)[Man(a1-2)Man(a1-6)]Man(a1-6)[Man(a1-2)Man(a1-2)Man(a1-3)]Man(b1-4)GlcNAc(b1-4)GlcNAc
# Method in brief: as §1
# [17] = target: Man(a1-2)Man(a1-3)[Man(a1-6)]Man(a1-6)[Man(a1-2)Man(a1-3)]Man(b1-4)GlcNAc(b1-4)GlcNAc
# Method in brief: as §1
# [18] = target: Man(a1-2)Man(a1-6)[Man(a1-3)]Man(a1-6)[Man(a1-2)Man(a1-2)Man(a1-3)]Man
# Method in brief: as §1
# [19] = target: Man(a1-2)Man(a1-6)[Man(a1-3)]Man(a1-6)[Man(a1-2)Man(a1-2)Man(a1-3)]Man(b1-4)GlcNAc(b1-4)GlcNAc
# Method in brief: as §1
# Man(a1-3)[Man(a1-6)]Man = target: Man(a1-3)[Man(a1-6)]Man
# Method in brief: as §1
# [20] = target: Man(a1-3)[Man(a1-6)]Man(a1-6)[Man(a1-2)Man(a1-3)]Man(b1-4)GlcNAc(b1-4)GlcNAc
# Method in brief: as §1
# [21] = target: Man(a1-3)[Man(a1-6)]Man(a1-6)[Man(a1-3)]Man
# Method in brief: as §1
# [22] = target: Man(a1-3)[Man(a1-6)]Man(a1-6)[Man(a1-3)]Man(b1-4)GlcNAc(b1-4)GlcNAc
# Method in brief: as §1
# [23] = target: Man(a1-3)[Man(a1-6)]Man(b1-4)GlcNAc(b1-4)GlcNAc
# Method in brief: as §1
# [24] = target: Man(a1-3)[Man(a1-6)]Man(b1-4)GlcNAc(b1-4)[Fuc(a1-6)]GlcNAc
# Method in brief: as §1
# Man(a1-6)Man = target: Man(a1-6)Man
# Method in brief: as §1
# Man(b1-4)GlcNAc = target: Man(b1-4)GlcNAc
# Method in brief: as §1
# MurNAc(b1-4)GlcNAc = target: MurNAc(b1-4)GlcNAc
# Method in brief: as §1
binder,measurement,setting,value
DrGal9 (Danio rerio) (protein) MAFYQQPPYYNPRIPFSGPIQGGLQDGKSIIISGRVLPGANRFHVNLQCGSHSEANVALHFNPRYEDTDYVVNNSYLNRTWGSEERKYESPFAQGQTFTLQILVAQDKYKISTNGRHFMDYKHRIPFTQVDTVAVEGMVEVNSVAFQNPAGFIPPQAGYAPQYAVPPGCGFPAFPSAPNYTIPHKTVMNGGLHPGKNIVINGVVNPNAKSIIFNLCYRSGIAFHYNPRFDENVVVRNTNQMEKWGAEERFGGLPFHKGQPFQVTISCNPQHYNVFVNGKQEHTYKHRYTKLNDIDILEICGDLQLTSVQA,glycan array binding signal (z-score),GlcNAc(b1-3)GalNAc,-0.416
same,glycan array binding signal (z-score),GlcNAc(b1-3)Man,-0.36
same,glycan array binding signal (z-score),[1],-0.41
same,glycan array binding signal (z-score),[2],-0.399
same,glycan array binding signal (z-score),[3],-0.417
same,glycan array binding signal (z-score),[4],-0.388
same,glycan array binding signal (z-score),GlcNAc(b1-4)GlcNAc,-0.379
same,glycan array binding signal (z-score),[5],-0.387
same,glycan array binding signal (z-score),[6],-0.385
same,glycan array binding signal (z-score),[7],-0.427
same,glycan array binding signal (z-score),[8],-0.334
same,glycan array binding signal (z-score),[9],-0.366
same,glycan array binding signal (z-score),GlcNAc(b1-6)GalNAc,-0.382
same,glycan array binding signal (z-score),[10],-0.045
same,glycan array binding signal (z-score),Kdn(a2-3)Gal(b1-3)GalNAc,-0.386
same,glycan array binding signal (z-score),Kdn(a2-3)Gal(b1-3)GlcNAc,-0.132
same,glycan array binding signal (z-score),Kdn(a2-3)Gal(b1-4)Glc,-0.395
same,glycan array binding signal (z-score),Kdn(a2-3)Gal(b1-4)GlcNAc,-0.184
same,glycan array binding signal (z-score),[11],-0.383
same,glycan array binding signal (z-score),Kdn(a2-6)Gal(b1-4)GlcNAc,-0.393
same,glycan array binding signal (z-score),[12],-0.394
same,glycan array binding signal (z-score),[13],-0.361
same,glycan array binding signal (z-score),Man(a1-2)Man(a1-3)Man,-0.396
same,glycan array binding signal (z-score),[14],-0.411
same,glycan array binding signal (z-score),[15],-0.388
same,glycan array binding signal (z-score),[16],-0.404
same,glycan array binding signal (z-score),[17],-0.416
same,glycan array binding signal (z-score),[18],-0.422
same,glycan array binding signal (z-score),[19],-0.394
same,glycan array binding signal (z-score),Man(a1-3)[Man(a1-6)]Man,-0.349
same,glycan array binding signal (z-score),[20],-0.376
same,glycan array binding signal (z-score),[21],-0.334
same,glycan array binding signal (z-score),[22],-0.406
same,glycan array binding signal (z-score),[23],-0.411
same,glycan array binding signal (z-score),[24],-0.394
same,glycan array binding signal (z-score),Man(a1-6)Man,-0.392
same,glycan array binding signal (z-score),Man(b1-4)GlcNAc,-0.382
same,glycan array binding signal (z-score),MurNAc(b1-4)GlcNAc,-0.397

# Reference: the supplement of paper PMC8728848
